According to paper PMC3958441, “Isl1 and Pou4f2 Form a Complex to Regulate Target Genes in Developing Retinal Ganglion Cells” (PLoS ONE, 2014):
Results are given in words; binding and its absence hold for the method and conditions named. For part of these data: In cells and extracts the contact can be indirect. Some results given as binding are weak or reduced against the parent protein; the word gives no strength. For part of these data: Tags and fused reporters may be left off the sequences shown. Values belong to the molecule of their own block, whether it stands above or below them.

Sequences of proteins named here, by UniProt entry; tags and fusion partners are left off.
UniProt P31360: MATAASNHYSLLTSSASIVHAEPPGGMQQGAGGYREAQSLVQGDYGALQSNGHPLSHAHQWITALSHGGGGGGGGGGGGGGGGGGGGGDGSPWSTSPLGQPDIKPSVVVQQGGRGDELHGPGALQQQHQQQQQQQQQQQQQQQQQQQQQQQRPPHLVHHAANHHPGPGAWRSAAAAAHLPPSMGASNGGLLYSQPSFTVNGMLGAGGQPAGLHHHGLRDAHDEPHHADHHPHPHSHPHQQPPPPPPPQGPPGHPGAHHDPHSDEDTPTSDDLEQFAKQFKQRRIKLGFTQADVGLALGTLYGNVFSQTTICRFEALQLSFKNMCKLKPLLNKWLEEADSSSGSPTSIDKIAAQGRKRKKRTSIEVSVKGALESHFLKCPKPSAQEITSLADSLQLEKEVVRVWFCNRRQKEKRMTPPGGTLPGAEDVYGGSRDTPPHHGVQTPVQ

Legend:
[1] = molecular target: T1, GST-Isl1 fusion protein (mouse) (UniProt P61372); experiment: pull-down; GST pull-down: about 20 ug of GST or GST-fusion E. coli lysate and 20 ug of non-fusion protein lysate in 125 mM Tris-HCl, 150 mM NaCl, pH 8.0, 4 C; glutathione magnetic beads, 6 washes; Western blotting
T1 sequence: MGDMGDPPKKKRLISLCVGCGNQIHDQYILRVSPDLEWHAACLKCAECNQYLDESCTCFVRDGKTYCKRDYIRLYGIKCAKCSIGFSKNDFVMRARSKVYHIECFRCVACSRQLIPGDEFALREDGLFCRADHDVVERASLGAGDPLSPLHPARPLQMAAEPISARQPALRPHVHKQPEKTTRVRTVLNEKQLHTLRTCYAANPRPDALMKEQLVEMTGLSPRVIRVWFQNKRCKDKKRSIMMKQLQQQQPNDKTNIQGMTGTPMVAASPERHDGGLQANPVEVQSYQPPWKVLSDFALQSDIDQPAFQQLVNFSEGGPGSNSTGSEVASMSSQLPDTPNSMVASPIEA

[2] = molecular target: T2, Isl1 expressed in HEK 293 cells (mouse, UniProt P61372 1-349); experiment: co-IP; HEK 293 cells co-expressing Isl1 and Pou4f2; lysate precipitated with rabbit anti-Isl1 or rabbit IgG and Protein A Dynabeads, 4 C; blot with goat anti-Pou4f2 and mouse anti-Isl1
T2 sequence (looked up): T1 sequence

[3] = molecular target: T3, GST-Pou4f2 fusion protein (mouse) (UniProt Q63934); experiment: pull-down; GST pull-down: about 20 ug of GST or GST-fusion E. coli lysate and 20 ug of non-fusion protein lysate in 125 mM Tris-HCl, 150 mM NaCl, pH 8.0, 4 C; glutathione magnetic beads, 6 washes; Western blotting
T3 sequence: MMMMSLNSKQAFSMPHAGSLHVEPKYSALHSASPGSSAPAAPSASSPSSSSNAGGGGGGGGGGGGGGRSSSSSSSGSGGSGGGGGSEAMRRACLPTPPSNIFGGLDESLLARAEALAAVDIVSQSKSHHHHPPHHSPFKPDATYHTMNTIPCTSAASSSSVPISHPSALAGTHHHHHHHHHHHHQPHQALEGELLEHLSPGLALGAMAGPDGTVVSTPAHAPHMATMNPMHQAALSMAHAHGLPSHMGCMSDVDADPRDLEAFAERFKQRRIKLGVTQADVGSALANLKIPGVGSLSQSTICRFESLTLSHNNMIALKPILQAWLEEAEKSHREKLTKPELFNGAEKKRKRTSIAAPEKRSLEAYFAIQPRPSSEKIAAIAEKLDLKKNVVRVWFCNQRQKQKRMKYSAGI

[4] = molecular target: T4, Pou4f2, full-length, His-tagged (mouse, UniProt Q63934 1-411); experiment: native gel or EMSA; EMSA with purified His-tagged proteins (200 ng each) and radiolabelled DNA probes (SBRN3, CBRN3; Ebf3 and Irx6 for Isl1 with Pou4f2D5); protein-protein complex read from a slower migrating ternary complex on DNA; 20 mM Tris-HCl pH 7.5, 0.05 M NaCl, 10 mM DTT, 1 mM EDTA, 5% glycerol, 4 C; both purified
T4 construct: Pou4f2 (Brn3b), mouse, full-length coding region in pET-28a(+); 411 a.a; also called Brn3b; source: E. coli, in lysate (pull-down); purified on His SpinTrap columns (EMSA); not shown: His tag, C-terminal, kept
T4 sequence (looked up): T3 sequence

binding [1]: binds
Molecule: Pou3f2, full-length, His-tagged (from UniProt P31360 1-445)

binding [2]: binds
B1: Pou4f2 expressed in HEK 293 cells (natural protein, mouse, UniProt Q63934 1-411, looked up)
chain: T3 sequence

binding [3]: no binding
binding [4]: no binding
B2: Isl1D1 (a.a. 1-181) (domain or fragment, UniProt P61372 1-181)
chain: MGDMGDPPKKKRLISLCVGCGNQIHDQYILRVSPDLEWHAACLKCAECNQYLDESCTCFVRDGKTYCKRDYIRLYGIKCAKCSIGFSKNDFVMRARSKVYHIECFRCVACSRQLIPGDEFALREDGLFCRADHDVVERASLGAGDPLSPLHPARPLQMAAEPISARQPALRPHVHKQPEKT

binding [3]: no binding
binding [4]: no binding
B3: Isl1D2 (a.a. 1-284) (domain or fragment, UniProt P61372 1-284)
chain: MGDMGDPPKKKRLISLCVGCGNQIHDQYILRVSPDLEWHAACLKCAECNQYLDESCTCFVRDGKTYCKRDYIRLYGIKCAKCSIGFSKNDFVMRARSKVYHIECFRCVACSRQLIPGDEFALREDGLFCRADHDVVERASLGAGDPLSPLHPARPLQMAAEPISARQPALRPHVHKQPEKTTRVRTVLNEKQLHTLRTCYAANPRPDALMKEQLVEMTGLSPRVIRVWFQNKRCKDKKRSIMMKQLQQQQPNDKTNIQGMTGTPMVAASPERHDGGLQANPVEV
